Data taken from the supplement of paper PMC4604168 (melanoma cell lines).
The list shows a part of the results. Many values rest on one well or one pass, so single values are uncertain.

How the values were obtained:
Assay in all cases: cell count relative to DMSO control; melanoma cells; higher = more viable cells
Settings in all cases: library dose: standard library concentration; 72 h
G361 = system: G361
IPC-298 = system: IPC-298
IST-MEL1 = system: IST-MEL1
LB2518-MEL = system: LB2518-MEL
LOXIMVI = system: LOXIMVI
MEL-HO = system: MEL-HO
MZ2-MEL = system: MZ2-MEL
MeWo = system: MeWo
RPMI7951 = system: RPMI7951
RVH-421 = system: RVH-421
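Also: cells treated in 1,536-well plates, then fixed and DAPI-stained, with nuclei counted from automated high-throughput microscope images.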

| Structure (SMILES) | cell count (G361) [%] | cell count (IPC-298) [%] | cell count (IST-MEL1) [%] | cell count (LB2518-MEL) [%] | cell count (LOXIMVI) [%] | cell count (MEL-HO) [%] | cell count (MZ2-MEL) [%] | cell count (MeWo) [%] | cell count (RPMI7951) [%] | cell count (RVH-421) [%] |
| --- | --- | --- | --- | --- | --- | --- | --- | --- | --- | --- |
| CC[C@]1(O)C[C@H]2CN(CCc3c([nH]c4ccccc34)[C@@](C(=O)OC)(c3cc4c(cc3OC)N(C=O)[C@H]3[C@@](O)(C(=O)OC)[C@H](OC(C)=O)[C@]5(CC)C=CCN6CC[C@]43[C@@H]65)C2)C1 [vincristine] + C[C@]1(O)C[C@@H](c2nc(-c3ccc4ccc(-c5ccccc5)nc4c3)c3c(N)nccn32)C1 [OSI906] (first compound 0.0005 µM, partner dose 2 µM) | 82.2 | 96 | 96.5 | 83.9 | 48.2 | 98.4 | 90 | 52.5 | 79.7 | 125 |
| Cc1cc(Nc2cc(N3CCN(C)CC3)nc(Sc3ccc(NC(=O)C4CC4)cc3)n2)n[nH]1 [Tozasertib] + CO[C@@H]1[C@H](N(C)C(=O)c2ccccc2)C[C@H]2O[C@]1(C)n1c3ccccc3c3c4c(c5c6ccccc6n2c5c31)C(=O)NC4 [Midostaurin] (first compound 0.03 µM, partner dose 0.4 µM) | 46.4 | 68.9 | 68.9 | 62.5 | 50.8 | 64.2 | 63 | 57.2 | 38.6 | 64.3 |
| N#CC[C@H](C1CCCC1)n1cc(-c2ncnc3[nH]ccc23)cn1 [ruxolitinib] + O=C(O)c1ccc2c(c1)nc(Nc1cccc(Cl)c1)c1ccncc12 [CX4945] (first compound 5 µM, partner dose 2 µM) | 84.5 | 84.1 | 83.2 | 113 | 67.7 | 71.9 | 89.6 | 112 | 96.8 | 114 |
| CC[C@]1(O)C[C@H]2CN(CCc3c([nH]c4ccccc34)[C@@](C(=O)OC)(c3cc4c(cc3OC)N(C=O)[C@H]3[C@@](O)(C(=O)OC)[C@H](OC(C)=O)[C@]5(CC)C=CCN6CC[C@]43[C@@H]65)C2)C1 [vincristine] + O=c1[nH]nc(Sc2ncc([N+](=O)[O-])s2)n1-c1ccc2c(c1)OCCO2 [BI78D3] (first compound 0.0005 µM, partner dose 1 µM) | 88.6 | 71 | 88.1 | 72.1 | 89.4 | 87.2 | 66.7 | 70.8 | 43.7 | 72.5 |
| Cc1cc(Nc2cc(N3CCN(C)CC3)nc(Sc3ccc(NC(=O)C4CC4)cc3)n2)n[nH]1 [Tozasertib] + Clc1ccc(Nc2nnc(Cc3ccncc3)c3ccccc23)cc1 [vatalanib] (first compound 0.03 µM, partner dose 10 µM) | 86.2 | 84.4 | 78.1 | 97.1 | 90.7 | 68.2 | 73.5 | 83.5 | 72.3 | 95.6 |
| Cc1cc(Nc2cc(N3CCN(C)CC3)nc(Sc3ccc(NC(=O)C4CC4)cc3)n2)n[nH]1 [Tozasertib] + CC(C)C[C@H](NC(=O)[C@H](Cc1ccccc1)NC(=O)c1cnccn1)B(O)O [Bortezomib] (first compound 0.03 µM, partner dose 0.005 µM) | 1.13 | 6.51 | 14.7 | 1.01 | 31 | 30.8 | 3.44 | 14.3 | 2.44 | 5.01 |
| Cc1cc(Nc2cc(N3CCN(C)CC3)nc(Sc3ccc(NC(=O)C4CC4)cc3)n2)n[nH]1 [Tozasertib] + CC(=O)c1c(C)c2cnc(Nc3ccc(N4CCNCC4)cn3)nc2n(C2CCCC2)c1=O [palbociclib] (first compound 0.03 µM, partner dose 0.2 µM) | 53.8 | 70.9 | 67.9 | 66.2 | 56.1 | 81.1 | 55.5 | 53.4 | 63.7 | 185 |
| N#CC[C@H](C1CCCC1)n1cc(-c2ncnc3[nH]ccc23)cn1 [ruxolitinib] + COc1cc2c(Oc3ccc4[nH]c(C)cc4c3F)ncnc2cc1OCCCN1CCCC1 [cediranib] (first compound 5 µM, partner dose 2 µM) | 97.7 | 128 | 101 | 131 | 89.5 | 106 | 119 | 99.7 | 65.2 | 66.5 |
| Cc1cc(Nc2cc(N3CCN(C)CC3)nc(Sc3ccc(NC(=O)C4CC4)cc3)n2)n[nH]1 [Tozasertib] + C[C@@H](Oc1cc(-c2cnn(C3CCNCC3)c2)cnc1N)c1c(Cl)ccc(F)c1Cl [Crizotinib] (first compound 0.03 µM, partner dose 1 µM) | 77 | 76.4 | 85.2 | 64.3 | 126 | 81.2 | 55.6 | 58.1 | 81.8 | 74.5 |
| CC[C@]1(O)C[C@H]2CN(CCc3c([nH]c4ccccc34)[C@@](C(=O)OC)(c3cc4c(cc3OC)N(C=O)[C@H]3[C@@](O)(C(=O)OC)[C@H](OC(C)=O)[C@]5(CC)C=CCN6CC[C@]43[C@@H]65)C2)C1 [vincristine] + O=S(=O)(c1ccccc1)N(CC(F)(F)F)c1ccc(C(O)(C(F)(F)F)C(F)(F)F)cc1 [T0901317] (first compound 0.0005 µM, partner dose 7 µM) | 96.1 | 90.7 | 83.3 | 78.7 | 73.3 | 93.2 | 64.4 | 48.2 | 37.8 | 78.8 |
| N#CC[C@H](C1CCCC1)n1cc(-c2ncnc3[nH]ccc23)cn1 [ruxolitinib] + C=C(c1ccc(C(=O)O)cc1)c1cc2c(cc1C)C(C)(C)CCC2(C)C [Bexarotene] (first compound 5 µM, partner dose 10 µM) | 59.4 | 73.2 | 82.1 | 119 | 144 | 68.8 | 59.4 | 72.2 | 60.5 | 101 |
| CC[C@]1(O)C[C@H]2CN(CCc3c([nH]c4ccccc34)[C@@](C(=O)OC)(c3cc4c(cc3OC)N(C=O)[C@H]3[C@@](O)(C(=O)OC)[C@H](OC(C)=O)[C@]5(CC)C=CCN6CC[C@]43[C@@H]65)C2)C1 [vincristine] + COc1cc([C@@H]2c3cc4c(cc3[C@@H](O[C@@H]3O[C@@H]5CO[C@@H](C)O[C@H]5[C@H](O)[C@H]3O)[C@H]3COC(=O)[C@H]23)OCO4)cc(OC)c1O [etoposide] (first compound 0.0005 µM, partner dose 0.1 µM) | 90.9 | 74.7 | 91.6 | 104 | 63.5 | 99 | 80.5 | 76.9 | 46.1 | 84.2 |
| Cc1cc(Nc2cc(N3CCN(C)CC3)nc(Sc3ccc(NC(=O)C4CC4)cc3)n2)n[nH]1 [Tozasertib] + CS(=O)(=O)c1ccc(C(=O)Nc2ccc(Cl)c(-c3ccccn3)c2)c(Cl)c1 [vismodegib] (first compound 0.03 µM, partner dose 5 µM) | 80.6 | 77.2 | 101 | 78.2 | 68.3 | 90.6 | 66.8 | 90.5 | 93.5 | 118 |
| CC[C@]1(O)C[C@H]2CN(CCc3c([nH]c4ccccc34)[C@@](C(=O)OC)(c3cc4c(cc3OC)N(C=O)[C@H]3[C@@](O)(C(=O)OC)[C@H](OC(C)=O)[C@]5(CC)C=CCN6CC[C@]43[C@@H]65)C2)C1 [vincristine] + NC(=O)Nc1cc(-c2cccc(F)c2)sc1C(=O)N[C@H]1CCCNC1 [AZD7762] (first compound 0.0005 µM, partner dose 0.1 µM) | 82.7 | 93.6 | 43.9 | 56.6 | 50.3 | 80.5 | 76.3 | 48.3 | 30.6 | 78.5 |
| CC[C@]1(O)C[C@H]2CN(CCc3c([nH]c4ccccc34)[C@@](C(=O)OC)(c3cc4c(cc3OC)N(C=O)[C@H]3[C@@](O)(C(=O)OC)[C@H](OC(C)=O)[C@]5(CC)C=CCN6CC[C@]43[C@@H]65)C2)C1 [vincristine] + COc1cc2ncnc(Nc3ccc(Oc4ccccc4)cc3)c2cc1OC [SrcI1] (first compound 0.0005 µM, partner dose 10 µM) | 64.2 | 75.2 | 76.2 | 83 | 42.7 | 83.1 | 74.3 | 74.5 | 45.4 | 68.4 |
| N#CC[C@H](C1CCCC1)n1cc(-c2ncnc3[nH]ccc23)cn1 [ruxolitinib] + Cn1cncc1[C@@](N)(c1ccc(Cl)cc1)c1ccc2c(c1)c(-c1cccc(Cl)c1)cc(=O)n2C [tipifarnib] (first compound 5 µM, partner dose 0.05 µM) | 82.3 | 106 | 75.1 | 84.2 | 87.1 | 80.7 | 106 | 86.8 | 62.2 | 75.9 |
| Cc1cc(Nc2cc(N3CCN(C)CC3)nc(Sc3ccc(NC(=O)C4CC4)cc3)n2)n[nH]1 [Tozasertib] + COc1cc2c(Oc3ccc4[nH]c(C)cc4c3F)ncnc2cc1OCCCN1CCCC1 [cediranib] (first compound 0.03 µM, partner dose 2 µM) | 70.3 | 104 | 106 | 66.8 | 58.2 | 115 | 83 | 75.4 | 67.2 | 76.6 |
| CC[C@]1(O)C[C@H]2CN(CCc3c([nH]c4ccccc34)[C@@](C(=O)OC)(c3cc4c(cc3OC)N(C=O)[C@H]3[C@@](O)(C(=O)OC)[C@H](OC(C)=O)[C@]5(CC)C=CCN6CC[C@]43[C@@H]65)C2)C1 [vincristine] + O=C(CCCCCCC(=O)Nc1ccccc1)NO [vorinostat] (first compound 0.0005 µM, partner dose 0.4 µM) | 75.2 | 76.3 | 81.9 | 74.8 | 61.8 | 84.7 | 87.2 | 78.6 | 38.8 | 96.2 |
| N#CC[C@H](C1CCCC1)n1cc(-c2ncnc3[nH]ccc23)cn1 [ruxolitinib] + COC(=O)c1sccc1S(=O)(=O)Nc1ccc(Nc2ccccc2)cc1OC [GSK0660] (first compound 5 µM, partner dose 5 µM) | 67.6 | 83.1 | 92.1 | 145 | 94.7 | 84.5 | 69.7 | 88.5 | 66.7 | 79.3 |
